{"source": "PubChem BioAssay AID1461", "about": "(National Center for Advancing Translational Sciences (NCATS), 2008)", "note": "Among all 220,000 compounds or so, about 2,300 (1%) were called active. Inconclusive results, whose numbers are uncertain, are shown with a selection of clear calls. Calls come from the whole dose curve; as a rule, active = well fitted inhibition curve with a large enough effect; inconclusive = small, poorly fitted or top-dose-only effect, or effect the other way; inactive = no such curve, though single readings can be large or run the other way. Potencies of inconclusive entries are left out as doubtful fits. Potency is the fitted concentration of half-maximal effect; tags give direction and shape of the fitted curve.", "data": [{"biological_target": "Neuropeptide S receptor (Homo sapiens) (UniProt Q6W5P4)", "sequence (Q6W5P4 whole entry, looked up)": "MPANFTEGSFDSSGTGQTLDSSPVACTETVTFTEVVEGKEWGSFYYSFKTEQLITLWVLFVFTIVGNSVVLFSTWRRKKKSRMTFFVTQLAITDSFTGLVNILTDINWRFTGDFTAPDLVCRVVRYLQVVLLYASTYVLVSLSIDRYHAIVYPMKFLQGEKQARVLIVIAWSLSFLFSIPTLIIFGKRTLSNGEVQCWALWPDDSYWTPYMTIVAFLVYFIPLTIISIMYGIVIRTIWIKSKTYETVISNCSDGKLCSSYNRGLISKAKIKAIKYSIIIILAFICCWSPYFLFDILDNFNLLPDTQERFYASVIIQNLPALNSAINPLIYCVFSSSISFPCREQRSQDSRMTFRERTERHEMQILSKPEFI", "experiment": "qHTS Assay for Antagonists of the Neuropeptide S Receptor: cAMP Signal Transduction; note: nearly all actives have a fitted effect of over 50% in size", "conditions": "CHO-NPSR cells, cAMP TR-FRET, antagonist mode; series mostly up to 38.3 µM", "values": [{"molecule": "C/C(=N\\NC(=S)NCCc1ccccc1)c1cccs1", "Potency": "inactive"}, {"molecule": "O=C(/C=C/c1ccco1)NC(=S)Nc1cccc(-c2nc3ccccc3o2)c1", "Potency": "active: 1.58 µM"}, {"molecule": "Cc1cccc(-c2nnc(SCC3CNC(=O)O3)n2-c2ccc(Cl)cc2)c1", "note": "(stereo not given)", "Potency": "inactive"}, {"molecule": "Brc1ccc(-c2nn3c(-c4ccco4)nnc3s2)o1", "Potency": "inconclusive [activator, partial curve]"}, {"molecule": "CC(C)Cn1cc(C(=O)N2CCN(c3ccccn3)CC2)c2c3ccccc3n(C)c2c1=O", "Potency": "inconclusive [inhibitor, partial curve]"}, {"molecule": "COc1ccc(S(=O)(=O)N[C@H](C(=O)N2CC[C@@]3(O)CCCC[C@H]3C2)c2ccccc2)cc1", "Potency": "inactive"}, {"molecule": "CSc1ccc(/C=N/NC(=O)CN2CCN(Cc3ccccc3Cl)CC2)cc1", "Potency": "inconclusive [inhibitor, partial curve, poor fit]"}, {"molecule": "COCCCn1c(Cc2csc(Nc3cccc(Cl)c3)n2)nnc1SCC(=O)OC1CCCCC1", "Potency": "inconclusive [inhibitor, single point]"}, {"molecule": "CCOc1c(OC(C)=O)ccc(/C=C2\\N=C(SCC)SC2=O)c1[N+](=O)[O-]", "Potency": "inactive"}, {"molecule": "CCSc1nnc(NC(=O)Cc2ccccc2OC)s1", "Potency": "inconclusive [inhibitor, single point]"}, {"molecule": "N#Cc1cccc(NC(=O)c2nc(-c3ccccc3)n(-c3ccccc3)n2)c1", "Potency": "inconclusive [inhibitor, partial curve]"}, {"molecule": "O=C(Nn1c(Cc2cccs2)nc2ccccc2c1=O)c1ccc(F)c(F)c1", "Potency": "inconclusive [inhibitor, single point]"}, {"molecule": "Cc1ccc(S(=O)(=O)N2CCN(CC(=O)NC3CCCc4ccccc43)CC2)cc1C", "note": "(stereo not given)", "Potency": "inconclusive [inhibitor, partial curve]"}, {"molecule": "O=[N+]([O-])c1cc(C(F)(F)F)ccc1NC1CCN(Cc2ccccc2)CC1", "Potency": "inconclusive [inhibitor, single point]"}, {"molecule": "CCOC(=O)c1[nH]ncc1CN1CCCC(C(=O)c2ccc(SC)cc2)C1", "note": "(stereo not given)", "Potency": "inactive"}, {"molecule": "CN(C)CCOC(=O)C12CC3CC(C1)CC(C(=O)OCCN(C)C)(C3)C2", "Potency": "inconclusive [activator, single point]"}, {"molecule": "O=C(C1=C[C@H](c2ccc(C(F)(F)F)cc2)C[C@H](OCCCCO)O1)N1CCN(Cc2ccc3c(c2)OCO3)CC1", "Potency": "inconclusive [activator, partial curve]"}, {"molecule": "CCC(NC(=O)NNC(N)=S)(C(F)(F)F)C(F)(F)F", "Potency": "inactive"}, {"molecule": "O=C(Nc1ccc(O)c2c(=O)cc(-c3cccc(Cl)c3)oc12)c1cccc(Cl)c1", "Potency": "inconclusive [inhibitor, single point]"}, {"molecule": "Oc1sc(C=Nc2ccc(F)cc2)c2ccccc12", "Potency": "inconclusive [inhibitor, partial curve, poor fit]"}, {"molecule": "O=[N+]([O-])c1c(NCCCO)cc(Sc2ccc(Cl)cc2)c2nonc12", "Potency": "inconclusive [inhibitor, single point]"}, {"molecule": "O=C(O)c1cc(O)c2c(c1)C(=O)c1cc(O)cc(O)c1C2=O", "Potency": "inactive"}, {"molecule": "CCCNC(=O)c1nnsc1S(=O)(=O)c1ccc(Cl)cc1", "Potency": "inconclusive [inhibitor, single point]"}, {"molecule": "C/C(N)=C(/C#N)C(=O)COC(=O)c1cccc(O)c1", "Potency": "inactive"}, {"molecule": "Cc1ccc2cc(CCNC(=O)c3ccco3)c(=O)[nH]c2c1C", "Potency": "inactive"}, {"molecule": "CCOC(=O)NC(N(O)c1cccc(Cl)c1)C(Cl)(Cl)Cl", "note": "(stereo not given)", "Potency": "inconclusive [activator, single point]"}, {"molecule": "COc1ccc(CCNC(=O)c2cc(-c3ccc(C)c(C)c3O)n[nH]2)cc1OC", "Potency": "inconclusive [inhibitor, single point]"}, {"molecule": "Cc1cc(C)n(-c2cc(C(C)(C)C)nc3c(-c4ccccc4)cnn23)n1", "Potency": "inconclusive [activator, partial curve]"}, {"molecule": "Cc1ccc(CSc2ncn(-c3ccccc3)n2)cc1", "Potency": "inactive"}, {"molecule": "CN(C)c1cccc(C(=O)Nc2ccc(N3CCOCC3)cc2)c1", "Potency": "inactive"}, {"molecule": "CCSC(=S)c1c(C)[nH]n(-c2ccccc2)c1=O", "Potency": "inconclusive [activator, single point]"}, {"molecule": "Cc1c(-c2ccccc2)nc(N)c(C#N)c1-c1ccco1", "Potency": "inactive"}, {"molecule": "CCOC(=O)N1CCN(C(=O)c2ccc3c(=O)n(-c4ccc(OC)cc4)c(=S)[nH]c3c2)CC1", "Potency": "inactive"}, {"molecule": "CCOC(=O)c1c(-c2ccc(C)o2)csc1NC(=O)CN(C)CC(=O)Nc1ccc(C)cc1", "Potency": "inconclusive [inhibitor, single point]"}, {"molecule": "O=C(Cn1cc(/C=C\\[N+](=O)[O-])c2ccccc21)Nc1ccccc1", "Potency": "active: 12.6 µM"}, {"molecule": "Cc1cc(C(C)(C)C)oc1C(=O)N(CC(=O)NC1CCCC1)Cc1ccccc1Cl", "Potency": "active: 7.94 µM"}, {"molecule": "COc1ccc2nc(NC(=O)Cc3cccs3)sc2c1", "Potency": "inactive"}, {"molecule": "CCOC(=O)C1=C(Cc2ccc(C)cc2)C(=O)c2ccccc2C1=O", "Potency": "active: 10 µM"}, {"molecule": "COC(=O)c1cccc(NC(=O)c2nn(C)c(=O)c3ccccc23)c1", "Potency": "inconclusive [inhibitor, partial curve]"}, {"molecule": "CCCN(CCC)S(=O)(=O)c1ccc(C(=O)N2CCCc3ccccc32)cc1", "Potency": "inconclusive [inhibitor, single point]"}, {"molecule": "CCOC(=O)C1CCN(c2nc3ccccc3nc2C(C#N)C(=O)OC(C)C)CC1", "note": "(stereo not given)", "Potency": "inconclusive [inhibitor, partial curve]"}, {"molecule": "CCCCOC(=O)c1ccc(NC(=S)NC(=O)c2c(Cl)cnn2C)cc1", "Potency": "inactive"}, {"molecule": "COc1cc(OC)cc(C(=O)N[C@H](C(=O)OCC(=O)Nc2ccc(C(C)C)cc2)C(C)C)c1", "Potency": "inconclusive [inhibitor, single point]"}, {"molecule": "Cc1ccc(-c2nc3ccccc3o2)cc1NC(=O)c1ccc2c(c1)OCO2", "Potency": "inconclusive [inhibitor, partial curve]"}, {"molecule": "CCn1c2ccccc2c2cc(CNCc3ccc(OC)cc3OC)ccc21", "Potency": "inconclusive [activator, partial curve]"}]}]}
